Assay results: PubChem BioAssay AID504937 (National Center for Advancing Translational Sciences (NCATS), 2011)
The campaign covered roughly 340,000 compounds. About 20 (0.006%) were called active. The shares of active, inactive and inconclusive entries below differ from those in the screen. The call rests on the fitted dose curve; in most records, active means well fitted inhibition curve with a large enough effect; inconclusive means small, poorly fitted or top-dose-only effect; inactive means no such curve, though single readings can be large or run the other way. Potencies beside an inconclusive call are fits to weak or partial responses and may not hold up.

What follows are molecules tested against Sphingomyelin phosphodiesterase (Homo sapiens) (UniProt P17405) (assay: Inhibitors of Secretory Acid Sphingomyelinase (S-ASM): qHTS). Settings: placental ASM, HMU-PC fluorogenic substrate (series up to 57.5 µM), 60 min.
UniProt P17405, sequence (P17405 whole entry, looked up): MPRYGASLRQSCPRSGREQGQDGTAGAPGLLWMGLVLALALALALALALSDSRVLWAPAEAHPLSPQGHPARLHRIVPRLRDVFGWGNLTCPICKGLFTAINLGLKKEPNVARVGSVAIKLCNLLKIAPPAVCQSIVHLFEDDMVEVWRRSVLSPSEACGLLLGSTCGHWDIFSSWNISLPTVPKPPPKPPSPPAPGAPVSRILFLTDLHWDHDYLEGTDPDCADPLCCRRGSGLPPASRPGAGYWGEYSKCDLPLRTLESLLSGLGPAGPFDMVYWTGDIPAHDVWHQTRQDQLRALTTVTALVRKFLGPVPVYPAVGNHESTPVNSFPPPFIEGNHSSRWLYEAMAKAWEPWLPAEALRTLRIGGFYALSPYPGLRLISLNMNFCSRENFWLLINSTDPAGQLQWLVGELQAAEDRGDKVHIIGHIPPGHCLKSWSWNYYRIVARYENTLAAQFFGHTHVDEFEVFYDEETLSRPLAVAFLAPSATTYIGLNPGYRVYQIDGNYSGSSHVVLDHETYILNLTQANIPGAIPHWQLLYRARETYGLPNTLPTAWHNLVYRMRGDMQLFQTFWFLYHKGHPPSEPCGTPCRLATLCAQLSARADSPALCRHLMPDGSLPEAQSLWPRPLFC
Outline: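 Steps: dispense placental human ASM, pin compound, wait 10 min at room temperature, add HMU-PC0 substrate at 9 uM final, incubate 60 min at 37 °C, add stop solution raising pH to 10, read fluorescence.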
Potency means the concentration at half of the fitted maximal effect; tags describe the fitted curve by direction and shape.

SMILES | Potency
CCOc1ccc(-c2cccc(NC(=O)c3ccc(Br)o3)c2)nn1 | inactive
COc1ccc(/C=N/NC(=O)c2nc(-c3ccccc3)cc(-c3ccccc3)n2)cc1O | inconclusive: 112 µM [inhibitor, partial curve]
Cc1nc(C(=O)Nc2cc(F)cc(Cl)c2)sc1C1(C)CC(c2ccccc2)=NO1 (stereo unspecified) | inconclusive: 89.1 µM [inhibitor, partial curve, poor fit]
CN1C(=O)/C(=C2\SC(=S)N(CCCCCC(=O)O)C2=O)c2ccccc21 | inactive
CC(=O)/C(=N\Nc1ccccc1)Sc1cccc2cccnc12 | inconclusive: 89.1 µM [inhibitor, single point]
COC(=O)NC(=C(Cl)Cl)S(=O)(=O)c1ccccc1 | inactive
CCCC(=O)Nc1nc2ccc(NC(=O)c3ccc(Br)o3)cc2s1 | inconclusive: 89.1 µM [inhibitor, single point]
COc1ccc(/C=N\NC(=O)c2cc(O)c(O)c(O)c2)cc1COc1ccc(C(=O)OCC(C)C)cc1 | inconclusive: 79.4 µM [inhibitor, single point]
CCN(CC)CCNC(=O)c1ccc(NC(=O)c2cn(-c3ccc(F)cc3)nc2-c2cccc(OC)c2)cc1 | inconclusive: 63.1 µM [inhibitor, partial curve, poor fit]
COCCCNC(=O)c1sc2ncn(CC(=O)Nc3ccc(C)c(Cl)c3)c(=O)c2c1C | inactive
C/C(=N\Nc1cc(C)nc(-c2ccccc2O)n1)c1ccccc1O | inconclusive: 100 µM [inhibitor, single point]
O=[N+]([O-])c1ccc(O)c(Nc2ncnc3ccccc23)c1 | inactive
CC(=O)N1CCN(c2ccc([N+](=O)[O-])c(NCC3CCCO3)c2)CC1 (stereo unspecified) | inconclusive: 100 µM [inhibitor, partial curve, poor fit]
O=C(CSc1nc2c(cnn2-c2ccccc2)c(=O)[nH]1)N1N=C(c2cccs2)CC1c1ccc(F)cc1 (stereo unspecified) | inconclusive: 112 µM [inhibitor, partial curve]
COc1cccc(CN2CCN(c3ncccn3)CC2)c1 | inactive
CCc1ccc(S(=O)(=O)Nc2cc(SCC(=O)O)c(O)c3ccccc23)cc1 | inconclusive: 112 µM [inhibitor, partial curve, poor fit]
CCN(C(=O)CSc1ncccc1C(=O)OC(C)C)c1cccc(C)c1 | inactive
O=C(CSc1nnc(SCc2ccccc2)s1)N/N=C/c1c(Cl)cccc1Cl | inconclusive: 282 µM [inhibitor, partial curve, poor fit]
COc1ccc(Nc2ccc([N+](=O)[O-])cn2)cc1 | inactive
COc1ccc(/C(C)=N/NC(=S)NCCc2ccccc2)c(O)c1 | inconclusive: 112 µM [inhibitor, partial curve, poor fit]
O=C(COC(=O)c1cc(=O)[nH]c2ccccc12)Nc1nc(-c2ccccc2)cs1 | inconclusive: 141 µM [inhibitor, partial curve, poor fit]
Cn1c(=O)c2c(-c3ccccc3)n(-n3cnnc3)cc2n(C)c1=O | inactive

SMILES | Potency
CCCc1nc2ccccc2c(C(=O)OCC(=O)Nc2ccc(S(=O)(=O)N3CCOCC3)cc2)c1CC | inconclusive: 89.1 µM [inhibitor, single point]
CCOC(=O)c1c(C)oc2c1C(=O)c1ccccc1C2=O | inactive
Cc1cc(Nc2ccc(Cl)cc2)nc(NCc2ccccc2)n1 | inconclusive: 100 µM [inhibitor, partial curve, poor fit]
CCCCCCCCCCCCCCCC[N+](C)(C)CCl | inconclusive: 56.2 µM [inhibitor, single point]
CC(C)(C)c1ccc(C(=S)N2CCN(c3ccccc3)CC2)cc1 | inactive
Brc1ccc(OCCOCCN2CCOCC2)cc1 | inactive
CCOc1ccc2oc(=O)cc(C)c2c1 | inactive
CN(C)S(=O)(=O)c1ccc(Cl)c(NC(=O)COC(=O)CCC2CCCCC2)c1 | inconclusive: 562 µM [inhibitor, partial curve, poor fit]
COc1cccc(-c2nc(NC3CCCC3)c3ccccc3n2)c1O | inconclusive: 79.4 µM [inhibitor, single point]
CCOc1cc(/C=C2\C(=O)N(Cc3ccc(C)cc3)C(C)=C2C(=O)OC)ccc1O | inconclusive: 224 µM [inhibitor, partial curve, poor fit]
CCN(CC)P(=O)(Nc1ccc([N+](=O)[O-])cc1)c1c(C)nn(CCC#N)c1NC(=O)c1ccc(Cl)cc1Cl (stereo unspecified) | inactive
Cc1ccc(S(=O)(=O)NCCNc2ccc([N+](=O)[O-])cc2)cc1 | inconclusive: 794 µM [inhibitor, partial curve, poor fit]
COc1cccc(Nc2nc(N)c([N+](=O)[O-])c(NCc3ccccc3)n2)c1 | inconclusive: 100 µM [inhibitor, partial curve, poor fit]
COc1ccc(-c2[nH]c(-c3ccccc3)nc2SCC(=O)Nc2nccs2)cc1 | inconclusive: 63.1 µM [inhibitor, partial curve]
CCOC(=O)N1CCN(C(=O)CCN2C(=O)/C(=C\c3ccccc3OC)SC2=S)CC1 | inactive
CCOC(=O)NC(=O)/C(C#N)=N/Nc1c(F)cccc1F | inconclusive: 282 µM [inhibitor, partial curve, poor fit]
Nc1c(C=C2C=CC(=O)C=C2)c(=O)nc2snc(SCc3ccccc3)n12 | inconclusive: 89.1 µM [inhibitor, partial curve]
CCc1ccc(N2CC(C(=O)Nc3ccc(C)c(S(=O)(=O)N4CCOCC4)c3)CC2=O)cc1 (stereo unspecified) | inconclusive: 89.1 µM [inhibitor, partial curve]
COc1ccc(CNC(=O)COc2cc(=O)n(C)c3ccccc23)cc1 | inactive
CCCCOc1ccc(CSCCNC(=S)Nc2ccccc2)cc1 | inactive
CC(C)Nc1nc2ccccc2c(=O)[nH]1 | inactive
COc1ccc(NC(=O)N(C)C[C@H]2Oc3ccc(NC(=O)Nc4ccc(C(F)(F)F)cc4)cc3C(=O)N([C@H](C)CO)C[C@@H]2C)cc1 | inconclusive: 79.4 µM [inhibitor, single point]

SMILES | Potency
Cc1c(N=Nc2ccc(N(C)C)cc2)c(=O)n(-c2ccccc2)n1C | inconclusive: 316 µM [inhibitor, partial curve, poor fit]
O=C(COc1ccc2ccc(=O)oc2c1)NC(Cc1ccc(Cl)cc1)C(=O)O (stereo unspecified) | inconclusive: 708 µM [inhibitor, partial curve, poor fit]
Oc1c(C=C2N=c3ccccc3=N2)sc(=S)n1-c1ccc(F)cc1 | inconclusive: 2240 µM [inhibitor, partial curve, poor fit]
CN(CC(=O)Nc1ccc(Cl)c(C(F)(F)F)c1)C(=O)c1cc(-c2ccncc2)nc2ccccc12 | inconclusive: 89.1 µM [inhibitor, partial curve, poor fit]
CN(CC(=O)Nc1ccc(OC(F)(F)F)cc1)C(=O)Cc1c(Cl)cccc1Cl | inconclusive: 100 µM [inhibitor, partial curve, poor fit]
Cc1csc(CNc2ncnc3ccc(-c4ccccc4Cl)cc23)c1 | inconclusive: 79.4 µM [inhibitor, single point]
C=Cc1ccc(Cn2nc(-c3ccc(C)cc3)ccc2=O)cc1 | inconclusive: 112 µM [inhibitor, partial curve, poor fit]
O=C(NCCNC(=O)Nc1ccc(Cl)cc1)Nc1ccc(Cl)cc1 | inactive
CCOC(=O)c1c(NC(C)=O)sc2c(OCC(O)CNC(C)(C)C)c(Br)ccc12 (stereo unspecified) | inconclusive: 562 µM [inhibitor, partial curve, poor fit]
CCOc1ccc(C=NNc2ccc(S(=O)(=O)Nc3ccccc3C(=O)O)cc2[N+](=O)[O-])cc1OC | inconclusive: 50.1 µM [inhibitor, partial curve]
OCCOCCn1c(C2CCCN2c2nc(-c3ccc(F)cc3)cs2)nc2cc(C(F)(F)F)ccc21 (stereo unspecified) | inconclusive: 100 µM [inhibitor, partial curve, poor fit]
CCCOC(=O)c1ccc(Oc2c(-c3ccc(O)cc3O)n[nH]c2C)cc1 | inconclusive: 112 µM [inhibitor, partial curve, poor fit]
O=C(COC(=O)c1cccc(F)c1)NC(=O)NC1CCCC1 | inactive
CC(C(=O)N1CCc2ccccc21)N(C)CC(=O)Nc1ccccc1Cl (stereo unspecified) | inactive
COc1ccc(-c2[nH]c(-c3cc(OC)c4c(c3)OCO4)nc2-c2ccccc2)cc1 | inconclusive: 70.8 µM [inhibitor, partial curve, poor fit]
CCc1ccc2c(c1)C1(NN=C(c3ccc(C)cc3)S1)C(=O)N2 (stereo unspecified) | inconclusive: 79.4 µM [inhibitor, single point]
CC1CCc2c(nc3ncnn3c2Nc2ccc(OC(F)(F)F)cc2)C1 (stereo unspecified) | inconclusive: 44.7 µM [inhibitor, partial curve, poor fit]
CCCCN=c1scc(-c2ccc3c(c2)NC(=O)CO3)n1N=C1CCCC1 | inconclusive: 89.1 µM [inhibitor, single point]
O=C(O)c1ccccc1NS(=O)(=O)c1ccc(NN=Cc2ccccc2F)c([N+](=O)[O-])c1 | inconclusive: 224 µM [inhibitor, partial curve, poor fit]
CC(C)(C)c1ccc(C(=O)N2CCNCC2)cc1 | inactive
COc1ccc(CN2CCc3ccc(NC(=O)c4ccncc4)cc3C2)c(F)c1 | inactive
CCOC(=O)c1ccc2c(c1)nc(COc1ccc3ccccc3c1)n2CC | inconclusive: 126 µM [inhibitor, partial curve, poor fit]
